{
  "source": "the supplement of paper PMC3334620",
  "note": "In all, about 33,000 sequences were measured (“E-score (-0.5 to 0.5)”: median about -0.016, highest 2% from about 0.32 on). The list shows a part of the results.",
  "data": [
    {"target": "T1, Stp1 (UniProt B3LFK1)", "T1 sequence": "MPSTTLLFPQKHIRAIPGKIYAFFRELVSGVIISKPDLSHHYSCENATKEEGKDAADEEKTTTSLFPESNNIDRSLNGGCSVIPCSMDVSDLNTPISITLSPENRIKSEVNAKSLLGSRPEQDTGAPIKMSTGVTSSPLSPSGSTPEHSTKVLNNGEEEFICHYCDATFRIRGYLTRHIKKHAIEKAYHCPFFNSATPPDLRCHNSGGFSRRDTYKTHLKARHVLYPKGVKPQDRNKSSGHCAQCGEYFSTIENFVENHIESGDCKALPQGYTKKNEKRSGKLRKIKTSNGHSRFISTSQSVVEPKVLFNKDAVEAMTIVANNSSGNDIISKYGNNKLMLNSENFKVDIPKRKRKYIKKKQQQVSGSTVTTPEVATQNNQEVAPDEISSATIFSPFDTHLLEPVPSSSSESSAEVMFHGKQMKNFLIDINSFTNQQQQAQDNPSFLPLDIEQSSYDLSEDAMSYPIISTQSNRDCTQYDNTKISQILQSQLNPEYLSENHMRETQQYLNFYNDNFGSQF", "test": "PBM E-score (8-mer binding enrichment) (E-score (-0.5 to 0.5)); higher = stronger / more preferred TF binding; most listed sequences are background and not binding sites", "conditions": "protein concentration: 200 nM; construct: GST-full length", "description": "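Universal 'all 10-mer' protein binding microarrays (Agilent AMADID 015681) probed with GST-tagged S. cerevisiae TFs (full-length or DBD) made by in vitro transcription/translation (PURExpress), about 100-200 nM. Bound TF was detected with fluorescent anti-GST. Each ungapped 8-mer (which stands for itself and its reverse complement) is scored by the PBM enrichment score (E-score), a modified Wilcoxon-Mann-Whitney statistic from -0.5 to +0.5, computed with the Universal PBM Analysis Suite. Scale: above 0.35 generally sequence-specific binding.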", "values": [
      {"sequence": "AATGTCCT", "PBM E-score": -0.246},
      {"sequence": "ACCTGCGG", "PBM E-score": 0.196},
      {"sequence": "CGCATGCC", "PBM E-score": 0.199},
      {"sequence": "CACGATCA", "PBM E-score": 0.188},
      {"sequence": "AGGTACTC", "PBM E-score": -0.138},
      {"sequence": "AGGACTCA", "PBM E-score": -0.164},
      {"sequence": "AACCTGAC", "PBM E-score": -0.0483},
      {"sequence": "AGACCTCA", "PBM E-score": 0.0171},
      {"sequence": "CGTCCCAG", "PBM E-score": -0.329},
      {"sequence": "ACGTGTTG", "PBM E-score": 0.0307},
      {"sequence": "AGATGCTC", "PBM E-score": -0.108},
      {"sequence": "CAGTGGCG", "PBM E-score": 0.0512},
      {"sequence": "GTAGGCCA", "PBM E-score": -0.0358},
      {"sequence": "CTCGCAGC", "PBM E-score": -0.133},
      {"sequence": "AGCTATAC", "PBM E-score": -0.0861},
      {"sequence": "ACCGATGG", "PBM E-score": 0.0108},
      {"sequence": "GAAGTTGC", "PBM E-score": 0.0438},
      {"sequence": "CGACATAA", "PBM E-score": 0.06},
      {"sequence": "TAGCGACA", "PBM E-score": -0.146},
      {"sequence": "CACCAGAG", "PBM E-score": -0.0081},
      {"sequence": "AAGACGCA", "PBM E-score": -0.139},
      {"sequence": "GTTACTTA", "PBM E-score": -0.00901},
      {"sequence": "AGTTTTAG", "PBM E-score": -0.149},
      {"sequence": "GCGCCCGA", "PBM E-score": 0.0872},
      {"sequence": "GGTATAAC", "PBM E-score": -0.0297},
      {"sequence": "ACGCCTCA", "PBM E-score": 0.313},
      {"sequence": "ATCGGCGC", "PBM E-score": 0.342},
      {"sequence": "GCATTAAC", "PBM E-score": 0.0874},
      {"sequence": "AGGAAGAC", "PBM E-score": -0.188},
      {"sequence": "ACACGATG", "PBM E-score": 0.0654},
      {"sequence": "AGCTCCAC", "PBM E-score": -0.199},
      {"sequence": "AAATAAGG", "PBM E-score": 0.0174},
      {"sequence": "ACATTTTC", "PBM E-score": 0.0893},
      {"sequence": "GACCTCCC", "PBM E-score": -0.384},
      {"sequence": "ATCGTCAC", "PBM E-score": -0.128},
      {"sequence": "TAGGATAA", "PBM E-score": -0.039},
      {"sequence": "CGCTAACC", "PBM E-score": -0.0457},
      {"sequence": "GTGCTTAA", "PBM E-score": 0.107},
      {"sequence": "CCAGAAGG", "PBM E-score": 0.0295},
      {"sequence": "TCATCGGA", "PBM E-score": -0.142},
      {"sequence": "TCGGGGCA", "PBM E-score": -0.189},
      {"sequence": "ACCTAATA", "PBM E-score": 0.182},
      {"sequence": "ACAACTAA", "PBM E-score": 0.208},
      {"sequence": "GCAAGTCA", "PBM E-score": -0.0296},
      {"sequence": "ACTGACAA", "PBM E-score": -0.0168},
      {"sequence": "GGACATGA", "PBM E-score": -0.0592},
      {"sequence": "ATCCTAAA", "PBM E-score": -0.167},
      {"sequence": "AGGGTGCC", "PBM E-score": 0.0272},
      {"sequence": "GGTCGCGA", "PBM E-score": 0.13},
      {"sequence": "ATAGTCAA", "PBM E-score": -0.0637},
      {"sequence": "AATTCAAA", "PBM E-score": 0.0612},
      {"sequence": "ACCAAGGG", "PBM E-score": -0.116},
      {"sequence": "GGGTGTAA", "PBM E-score": -0.108},
      {"sequence": "CCTCCTAG", "PBM E-score": -0.0286},
      {"sequence": "AGGACTGG", "PBM E-score": -0.0956},
      {"sequence": "GTGACATA", "PBM E-score": 0.111},
      {"sequence": "CTCCAGAG", "PBM E-score": -0.141},
      {"sequence": "CCCACTGA", "PBM E-score": -0.175},
      {"sequence": "CCACAGCC", "PBM E-score": -0.119},
      {"sequence": "CCCAGTCC", "PBM E-score": -0.269},
      {"sequence": "CACAAAGG", "PBM E-score": 0.0246},
      {"sequence": "AGCAGACA", "PBM E-score": -0.136},
      {"sequence": "ACGGACAT", "PBM E-score": 0.154},
      {"sequence": "TCCACGCA", "PBM E-score": 0.0184},
      {"sequence": "ACGTGACG", "PBM E-score": -0.0358},
      {"sequence": "CTAGCAAC", "PBM E-score": -0.0374},
      {"sequence": "GGACGCAC", "PBM E-score": -0.105},
      {"sequence": "GTAGAATA", "PBM E-score": 0.204},
      {"sequence": "GAGTCCGC", "PBM E-score": -0.0713},
      {"sequence": "TAGATGGA", "PBM E-score": -0.0885},
      {"sequence": "CACGGAAA", "PBM E-score": 0.27},
      {"sequence": "ATCACAAT", "PBM E-score": -0.0368},
      {"sequence": "ATTCCGCG", "PBM E-score": 0.103},
      {"sequence": "ACTACCGA", "PBM E-score": -0.163},
      {"sequence": "CTGCCTGA", "PBM E-score": -0.0731},
      {"sequence": "AATATGAA", "PBM E-score": 0.0785},
      {"sequence": "AAGCCAGA", "PBM E-score": -0.0844},
      {"sequence": "AACCTAAT", "PBM E-score": -0.0832},
      {"sequence": "CAGCTCGG", "PBM E-score": -0.179},
      {"sequence": "ACACGAAT", "PBM E-score": 0.117},
      {"sequence": "GTATCGGA", "PBM E-score": -0.0517},
      {"sequence": "AAACGGTA", "PBM E-score": 0.166},
      {"sequence": "CTCTCTGC", "PBM E-score": -0.125},
      {"sequence": "ACCCACGT", "PBM E-score": -0.0313},
      {"sequence": "CACCTTAG", "PBM E-score": -0.229},
      {"sequence": "ATCGTCAA", "PBM E-score": 0.0655},
      {"sequence": "ATCGTTGA", "PBM E-score": -0.0862},
      {"sequence": "AGCATTAG", "PBM E-score": -0.147},
      {"sequence": "ATGACGAG", "PBM E-score": -0.0436},
      {"sequence": "ATAAATGG", "PBM E-score": 0.0779},
      {"sequence": "CGGGATTA", "PBM E-score": 0.0374},
      {"sequence": "ACGGACTC", "PBM E-score": -0.0205},
      {"sequence": "GCAACCCC", "PBM E-score": -0.222},
      {"sequence": "ACTGAGAA", "PBM E-score": 0.0362},
      {"sequence": "GCTCTTTA", "PBM E-score": -0.0143},
      {"sequence": "ACATTTAT", "PBM E-score": -0.013},
      {"sequence": "AAGATTGA", "PBM E-score": 0.0691},
      {"sequence": "GAAATGTC", "PBM E-score": -0.143},
      {"sequence": "AGTAAATC", "PBM E-score": -0.00855},
      {"sequence": "GGATAAGA", "PBM E-score": -0.0166},
      {"sequence": "AACACGCC", "PBM E-score": 0.2},
      {"sequence": "GAATAGTA", "PBM E-score": 0.0764},
      {"sequence": "CGTATCCA", "PBM E-score": -0.195},
      {"sequence": "CAAACCCA", "PBM E-score": -0.138},
      {"sequence": "GAGCGACC", "PBM E-score": -0.159},
      {"sequence": "CTAAGAAG", "PBM E-score": -0.0366},
      {"sequence": "CACTCCCG", "PBM E-score": -0.188},
      {"sequence": "CGGACAAG", "PBM E-score": 0.117},
      {"sequence": "CCACCGAA", "PBM E-score": 0.0847},
      {"sequence": "ATTCATGA", "PBM E-score": 0.123}
    ]}
  ]
}
